Sequences with one replicate were seen in a single cluster, so their values are uncertain.
Each sequence was assayed on ATP (assay: switch fluorescence ratio, 500 uM ATP over buffer (Cy3 cluster intensity, sum of 5 cycles each) (fold (ratio)); higher = stronger signal-on switching upon ATP binding; sequences stand for … in TCGTCGGCAGCGTCAGATGTGTATAAGAGACAGTTTTTTTTTTTTTTTTTTTTTTTTT…TC). Settings: aptamer strand: ATP DNA aptamer (quencher-CACCTGGGGGAGTATTGCGGAGGAAGG + anchor), 100 nM annealed; ATP concentration: 500 uM; one replicate.
Method in brief: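 Cy3-labelled switching-strand clusters on a modified Illumina MiSeq flow-cell were annealed to 100 nM quencher-labelled ATP aptamer, imaged in selection buffer, then imaged after 15 min with 500 uM ATP at 22 °C. Five buffer/ATP cycles ran, with NaOH stripping and re-annealing between them. The fluorescence ratio is summed target-cycle over summed buffer-cycle Cy3 intensity per cluster, averaged per switch-domain sequence. Clusters outside 100-1000 RFU were excluded.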
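Also: ATP exposure 15 min at 22 °C before imaging.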

Sequence | switch fluorescence ratio
ATATTATGCC | 1.01
ATATTCGATG | 0.986
ATATTCGTTC | 1.01
ATATTCTGTG | 0.988
ATATTGCGGT | 1
ATATTTAATA | 0.986
ATATTTGTTC | 1.05
ATATTTTATA | 1.01
ATATTTTCCG | 0.968
ATCAACATGT | 0.975
ATCAACGGTT | 0.984
ATCAAGCTTG | 1.03
ATCAAGGAGT | 0.956
ATCAAGGGGC | 1.07
ATCAATATAA | 0.983
ATCACGAGAG | 1.03
ATCACGGTTT | 1.01
ATCACTCGAG | 0.969
ATCACTGTTC | 1.01
ATCAGAAATA | 1.02
ATCAGAATCT | 0.999
ATCAGCTAC | 2.44
ATCAGGAA | 0.978
ATCAGGACT | 0.963
ATCAGGAGGG | 0.996
ATCAGGTCGT | 1.01

Sequence | switch fluorescence ratio
ATCAGGTTCG | 1.01
ATCAGTTTTT | 0.934
ATCATAAATG | 1.03
ATCATAACCC | 1.01
ATCATCACT | 1.07
ATCATCGTTC | 0.996
ATCATGCAGT | 0.953
ATCATGTTTG | 0.98
ATCATTACGG | 1.01
ATCATTTTGA | 0.967
ATCCAATATC | 1.32
ATCCACCCGA | 1.08
ATCCACCTTT | 1.1
ATCCACGCGA | 1.31
ATCCACGG | 1.03
ATCCACTATG | 1.04
ATCCAGAGCC | 1.07
ATCCAGAGCG | 1.06
ATCCATCCTA | 1.02
ATCCCGGCCA | 1.05
ATCCCTGTTT | 0.959
ATCCCTTAG | 1.24
ATCCGAATGG | 1.09
ATCCGCGCCT | 1.59
ATCCGGTAA | 1.02
ATCCGTCCGC | 1.9

Sequence | switch fluorescence ratio
ATCCGTGCTC | 1.22
ATCCTCTGTT | 1.04
ATCCTGACTC | 2.01
ATCCTGGAAA | 0.983
ATCCTTCT | 1.15
ATCCTTCTAT | 0.971
ATCGAAAATT | 0.949
ATCGAACCCG | 1.05
ATCGACAAGA | 0.991
ATCGACGCCA | 1.94
ATCGACTGTT | 1.04
ATCGAGGGGC | 0.948
ATCGATAGGG | 1.01
ATCGATGCTA | 1.03
ATCGATTGTA | 1.04
ATCGCAATCA | 2.5
ATCGCAGGTT | 1.03
ATCGCCAATT | 1.05
ATCGCCCATA | 1.02
ATCGCGGTTC | 1.26
ATCGCGTCGA | 1.02
ATCGCTGGCA | 0.958
ATCGGACGC | 1.09
ATCGGCGGAT | 0.964
ATCGGGGTCT | 1.01
ATCGGTTAAT | 0.998

Sequence | switch fluorescence ratio
ATCGTAAAGC | 1.06
ATCGTCGAGT | 0.967
ATCGTCTACA | 1
ATCGTGGAG | 1.02
ATCGTGGTCG | 1.01
ATCGTGTGGA | 1.07
ATCGTTGAGC | 0.988
ATCGTTTAGA | 1.01
ATCTAGAAAG | 1.03
ATCTAGTGAC | 0.998
ATCTCAGCTC | 1.09
ATCTCAGGGG | 1.87
ATCTCCCTCA | 1.1
ATCTCCGTGT | 1.12
ATCTCGCACC | 1.34
ATCTCTAAG | 1
ATCTCTTGTG | 1.03
ATCTGAAAC | 1
ATCTGCCAGC | 1.04
ATCTGCCGAA | 1.03
ATCTGCCTG | 0.948
ATCTGCTGGG | 1.02
ATCTGGCGAT | 1.06
